Assay results: PubChem BioAssay AID504339 (National Center for Advancing Translational Sciences (NCATS), 2011)
In all, about 390,000 compounds went through this assay and about 17,000 (4.4%) were called active. Inconclusive means that the source gave no clear call. Such entries were picked first, then a sample of the others. Calls come from the whole dose curve; as a rule, active = well fitted inhibition curve with a large enough effect; inconclusive = small, poorly fitted or top-dose-only effect; inactive = no such curve, though single readings can be large or run the other way. Where the call is inconclusive, the potency comes from a doubtful curve fit.

Biological target: Lysine-specific demethylase 4A (Homo sapiens) (UniProt O75164)
Test: qHTS Assay for Inhibitors of JMJD2A-Tudor Domain; note: nearly all actives have a fitted effect of over 50% in size
Conditions: AlphaScreen JMJD2A-Tudor / H3K4me3 peptide binding; activity change, negative = inhibition: at 114 µM (top of the series)
% is set by controls: 0 for no effect and ±100 for the full control effect; potency is the fitted concentration of half-maximal effect; tags give direction and shape of the fitted curve.

Chain of UniProt O75164 (O75164 whole entry, looked up, the tested form may be a part): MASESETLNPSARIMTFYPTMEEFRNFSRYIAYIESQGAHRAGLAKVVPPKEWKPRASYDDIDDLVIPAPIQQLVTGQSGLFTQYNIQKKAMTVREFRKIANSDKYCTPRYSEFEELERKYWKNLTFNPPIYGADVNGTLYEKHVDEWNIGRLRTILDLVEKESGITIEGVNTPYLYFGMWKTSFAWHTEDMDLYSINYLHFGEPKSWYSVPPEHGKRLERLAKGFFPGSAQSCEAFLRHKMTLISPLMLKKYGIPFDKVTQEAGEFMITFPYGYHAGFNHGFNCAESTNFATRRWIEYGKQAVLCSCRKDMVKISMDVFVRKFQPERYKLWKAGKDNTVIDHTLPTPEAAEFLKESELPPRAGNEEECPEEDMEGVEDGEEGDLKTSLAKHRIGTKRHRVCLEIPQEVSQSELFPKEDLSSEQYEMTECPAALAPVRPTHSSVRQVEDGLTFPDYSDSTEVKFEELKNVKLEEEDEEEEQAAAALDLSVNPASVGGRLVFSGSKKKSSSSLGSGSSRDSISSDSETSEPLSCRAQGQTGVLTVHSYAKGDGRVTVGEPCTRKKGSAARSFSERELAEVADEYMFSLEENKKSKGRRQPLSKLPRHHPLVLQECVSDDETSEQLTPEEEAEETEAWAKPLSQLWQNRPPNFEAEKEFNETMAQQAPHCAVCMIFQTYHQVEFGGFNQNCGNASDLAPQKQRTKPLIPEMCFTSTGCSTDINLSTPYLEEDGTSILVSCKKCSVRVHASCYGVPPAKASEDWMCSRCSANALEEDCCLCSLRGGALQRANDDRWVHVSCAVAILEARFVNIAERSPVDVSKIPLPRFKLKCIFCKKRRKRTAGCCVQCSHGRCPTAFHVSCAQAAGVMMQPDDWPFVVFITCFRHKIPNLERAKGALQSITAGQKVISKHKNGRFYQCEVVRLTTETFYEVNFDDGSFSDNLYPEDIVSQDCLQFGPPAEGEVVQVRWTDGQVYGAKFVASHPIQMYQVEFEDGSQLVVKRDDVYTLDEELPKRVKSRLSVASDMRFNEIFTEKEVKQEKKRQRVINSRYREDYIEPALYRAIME

SMILES	Potency	activity change, negative = inhibition
COc1cccc(-c2nn(-c3ccccc3)cc2/C=C(\C#N)C(=O)NCCCn2ccnc2)c1	active: 44.7 µM	
CC(=O)CC(=O)Nc1ccc(C(N)=O)cc1		inactive: -5.43%
CCc1nnc(NC(=O)c2nc(S(C)(=O)=O)ncc2Cl)s1	active: 10 µM	
COc1ccc(C2C3C=CCC(c4cccc(-c5ccc(N(C)C)cc5)c4)C3C(=O)N2Cc2ccccc2)cc1Cl (configuration not stated)	inconclusive: 4.47 µM [inhibitor, full curve]	
CCn1c(=O)cc(SCC(=O)N2CCN(Cc3ccc4c(c3)OCO4)CC2)c2ccccc21	inconclusive: 50.1 µM [inhibitor, partial curve]	
O=C(c1ccccc1)C1CCN(c2ncccc2[N+](=O)[O-])CC1	inconclusive: 10 µM [inhibitor, full curve]	
CCCC(C)C(=O)Nc1nc(C)c(-c2csc(Nc3ccccc3OC)n2)s1 (configuration not stated)	inconclusive: 63.1 µM [inhibitor, partial curve, poor fit]	
COc1ccc(Cl)cc1NC(=O)c1cc(S(=O)(=O)N2CCc3ccccc32)cn1C	inconclusive: 15.8 µM [inhibitor, full curve]	
COc1cc(OC)cc(C(=O)NCC(=O)OCC(=O)N2c3ccccc3NC(=O)C2(C)C)c1		inactive: -15.9%
COc1ccc(-n2c(=O)[nH]c3cc(C(=O)NCCc4ccc(OC)c(OC)c4)ccc3c2=O)c(OC)c1		inactive: 4.2%
CC1CCCCC1NC(=O)COC(=O)c1c2c(nc3ccccc13)/C(=C/c1ccco1)CC2 (configuration not stated)	active: 44.7 µM	
O=C(CC1SC(=O)N(c2ccccc2)C1=O)Nc1ccc(Cl)cc1 (configuration not stated)		inactive: -23.3%
O=C1CCC(C(=O)OCc2cc(Cl)ccc2OC(F)F)N1 (configuration not stated)	active: 39.8 µM	
Cc1cccc(NCc2ccccc2O)c1	inconclusive: 79.4 µM [inhibitor, partial curve]	
COCCOC(=O)C1=C(C)Nc2ncnn2C1c1ccccc1 (configuration not stated)	inconclusive: 0.501 µM [inhibitor, full curve, poor fit]	
O=c1cc(N/N=C/c2ccccc2)[nH]c(=O)[nH]1	inconclusive: 79.4 µM [inhibitor, single point]	
Cc1nc2c(s1)sc1ccccc12		inactive: -2.03%
Cc1cccc(/C=N/c2sc3c(c2C#N)CCN(Cc2ccccc2)C3)c1O	inconclusive: 7.08 µM [inhibitor, full curve, poor fit]	
O=C(N/N=C/c1[nH]c2ccccc2c1Cl)c1cccc(Br)c1	inconclusive: 20 µM [inhibitor, single point]	
C[C@]12c3[nH]c4cc(-c5ccco5)ccc4c3CCN1C(=O)[C@@H](CC(=O)NCc1cccc(C(F)(F)F)c1)C[C@@H]2C(=O)N1CCOCC1	inconclusive: 50.1 µM [inhibitor, partial curve]	
COc1ccc(NC(=O)CN(C)S(=O)(=O)c2ccc3[nH]c4c(c3c2)CCCC4)cc1OC	inconclusive: 50.1 µM [inhibitor, partial curve]	
COc1cccc(N2CCN(C(=O)c3cc4cc(Cl)ccc4[nH]3)CC2)c1	inconclusive: 39.8 µM [inhibitor, full curve]	
COc1cccc(C(=O)Nc2cc(OC)ccc2NC(=O)c2ccco2)c1	inconclusive: 4.47 µM [inhibitor, full curve, poor fit]	
Cn1nc(-c2ccc(Cl)cc2)c2cc(C(=O)N3CCN(c4ccccc4)CC3)sc21	inconclusive: 14.1 µM [inhibitor, full curve]	

SMILES	Potency	activity change, negative = inhibition
COc1cccc(C2/C(=C(\O)c3ccc4c(c3)OCCO4)C(=O)C(=O)N2CC2CCCO2)c1 (configuration not stated)	active: 22.4 µM	
S=c1nc[nH]c2c1ncn2-c1ccccc1	active: 0.631 µM	
Cc1ccc(/C=C/C(=O)N2CCN(S(=O)(=O)c3cccs3)CC2)o1		inactive: -34.4%
Cc1cccc(Nc2nc(N3CCOCC3)nc(N3CCOCC3)n2)c1		inactive: -22.6%
COc1ccc(NC(=O)CN2CCN(CC(=O)Nc3ccccc3Cl)CC2)c(OC)c1		inactive: -12.3%
NC(=O)c1cc([N+](=O)[O-])ccc1NCc1cccc2ccccc12	inconclusive: 25.1 µM [inhibitor, partial curve]	
O=C(NCCNC(=O)c1cccc(O)c1)c1cccc(O)c1	inconclusive: 1.26 µM [inhibitor, full curve]	
CC1(OC(=O)C2CCCC2)C(=O)C=C2C=C(c3ccsc3)N(C3CC3)C=C2C1=O (configuration not stated)	inconclusive: 89.1 µM [inhibitor, partial curve]	
Cc1sc(N)c(C(=O)c2ccccc2Cl)c1C	inconclusive: 50.1 µM [inhibitor, partial curve, poor fit]	
C/C(=N\Nc1nc2c(s1)CCCC2)c1ccccc1	inconclusive: 39.8 µM [inhibitor, single point]	
CC1CCN(c2oc(-c3ccccc3F)nc2C#N)CC1	inconclusive: 50.1 µM [inhibitor, partial curve]	
CCOC(=O)c1cc(-c2ccc(/C=N\n3cnnc3)o2)ccc1Cl		inactive: -33.3%
CCOc1cc(NCCN2CCOCC2)c([N+](=O)[O-])cc1OCC	inconclusive: 79.4 µM [inhibitor, partial curve]	
Cc1ccc(S(=O)(=O)NC(C)(C)CSc2ccccn2)cc1	inconclusive: 89.1 µM [inhibitor, single point]	
C/C=C\C=C/C(=O)Nc1cccc(C2=NOC3(C2)C[C@@H](C(N)=O)N(C(=O)[C@H]2CCC(=O)N2)C3)c1 (some centres not stated)	inconclusive: 100 µM [inhibitor, single point]	
Cc1cc(C)cc(Nc2ncc3c(n2)CC(c2ccco2)CC3=O)c1 (configuration not stated)	active: 89.1 µM	
CCCN1CCN(c2ncnc3sc(C(=O)Nc4ccc(N(CC)CC)cc4C)c(C)c23)CC1	active: 50.1 µM	
COc1ccc(C(=O)Nc2nc3ccc(OC)cc3s2)cc1		inactive: -17.7%
CC(C)(C)n1nnnc1C(c1ccc(Cl)cc1)N(Cc1cccnc1)Cc1ccco1 (configuration not stated)	inconclusive: 56.2 µM [inhibitor, partial curve]	
CCOC(=O)c1cnn(-c2ccccc2)c1-c1ccncc1	inconclusive: 100 µM [inhibitor, single point]	
O=[N+]([O-])c1nn(-c2ccc3c(c2)OCCO3)n(O)c1=NC1CCCCC1	inconclusive: 4.47 µM [inhibitor, partial curve]	
O=C(NS(=O)(=O)c1ccc2c(c1)OCCO2)c1ccccc1	inconclusive: 56.2 µM [inhibitor, partial curve]	
Cc1cccc(-c2nc3ccccc3c(=O)n2NC(=O)/C=C/c2ccc([N+](=O)[O-])cc2)c1	inconclusive: 25.1 µM [inhibitor, single point]	
CC(=O)Nc1cc2c3c(c1)CC(=O)N3CCC2	inconclusive: 22.4 µM [inhibitor, full curve, poor fit]	

SMILES	Potency	activity change, negative = inhibition
O=C(CCCc1nc(-c2ccco2)no1)Nc1ccccc1[N+](=O)[O-]		inactive: -25.8%
COc1ccc(S(=O)(=O)NCc2ccccn2)c(Cl)c1Cl	inconclusive: 25.1 µM [inhibitor, single point]	
O=C(Nc1ccc(F)cc1)C(c1ccccc1)N1CCN(C(=O)c2ccco2)CC1 (configuration not stated)	inconclusive: 79.4 µM [inhibitor, partial curve]	
Cc1ccc(/C=N/Nc2cc(C)nc(NCc3ccccc3)n2)cc1	inconclusive: 39.8 µM [inhibitor, partial curve]	
COc1ccccc1-c1nc(C#N)c(N2CCN(c3ccccc3)CC2)o1	inconclusive: 50.1 µM [inhibitor, partial curve]	
Nc1c(NCCc2ccccc2)c2ccccc2oc1=O	inconclusive: 89.1 µM [inhibitor, partial curve]	
CC(NC(=O)COc1ccc(Br)cc1)C(=O)O (configuration not stated)		inactive: -10.1%
COc1ccc(NC(=O)CC2C(=O)N(c3ccccc3)C(=O)N2Cc2cccnc2)cc1 (configuration not stated)		inactive: 14.5%
Oc1ccc(N=Nc2ccccc2)o1		inactive: -17.1%
COc1cccc(OCC(O)CN2CCN(C)CC2)c1 (configuration not stated)	active: 1 µM	
Oc1cccc(C=NN=C2c3ccccc3-c3ccccc32)c1	active: 44.7 µM	
COC(=O)/C=C1/C(=O)N/C(=N\c2nc(C)cc(C)n2)N1c1ccc(OC)cc1	active: 25.1 µM	
COc1ccc(N2CCN(C(=O)CN(Cc3ccc(Cl)cc3)S(C)(=O)=O)CC2)cc1	inconclusive: 79.4 µM [inhibitor, partial curve]	
COc1ccc(NS(=O)(=O)c2cc(NC(=O)CCc3ccc(OC)c(OC)c3)ccc2N2CCOCC2)cc1		inactive: -34.6%
Cc1ccccc1Nc1nc(N)nc(CSc2nc3ccccc3s2)n1	inconclusive: 79.4 µM [inhibitor, partial curve]	
O=C(CCc1ccccc1)NCC(c1ccco1)N1CCc2ccccc21 (configuration not stated)	inconclusive: 56.2 µM [inhibitor, partial curve]	
COCCN(CCOC)S(=O)(=O)c1ccc(C(=O)Nc2nnc(COC)o2)cc1	inconclusive: 44.7 µM [inhibitor, single point]	
COc1ccc(NS(=O)(=O)c2ccc3[nH]c4c(c3c2)CCCC4)c(OC)c1	inconclusive: 35.5 µM [inhibitor, partial curve]	
CCCc1sc(N/N=C/c2ccccn2)nc1-c1ccc(Br)cc1	active: 50.1 µM	
COC(=O)c1ccc(CSc2nnc(-c3ccncc3)o2)o1		inactive: -11.6%
Cc1ccc(F)cc1NCC(=O)Nc1ccc(Br)cc1		inactive: -23.6%
CC(C)(C)NC(=O)CSc1nnc(NC(=O)CCn2cnc3ccccc3c2=O)s1	active: 25.1 µM	
O=C1C(Cl)=C(NC(=O)c2ccccc2)C(=O)C(Cl)=C1NC(=O)c1ccccc1	active: 0.708 µM	
CC(=O)c1ccc(N2CCN(c3ccc(S(=O)(=O)NCCCN(C)C)cc3[N+](=O)[O-])CC2)cc1	inconclusive: 50.1 µM [inhibitor, partial curve]	
